# Experimental data taken from the supplement of paper PMC8728848.
# The other results are listed elsewhere or left out.
# B1: F17aG (Escherichia coli), Q99003 (protein)
# chain: MTNFYKVFLAVFILVCCNISQAAVSFIGSTENDVGPSLGSYSRTHAMDNLPFVYDTRNKIGYQNANVWHISKGFCVGLDGKVDLPVVGSLDGQSIYGLTEEVGLLIWMGDTKYSRGTAMSGNSWENVFSGWCVGANTASTQGLSVRVTPVILKRNSSARYSVQKTSIGSIRMRPYNGSSAGSVQTTVNFSLNPFTLNDTVTSCRLLTPSAVNVSLAAISAGQLPSSGDEVVAGTTSLKLQCDAGVTVWATLTDATTPSNRSDILTLTGASTATGVGLRIYKNTDSTPLKFGPDSPVKGNENQWQLSTGTETSPSVRLYVKYVNTGEGINPGTVNGISTFTFSYQ
# Columns and labels:
# Assay in all cases: glycan array binding signal (z-score within array); higher = stronger binding
# Conditions in all cases: glycan notation: IUPAC condensed, linker removed
# Gal3S(b1-3)GalNAc = target: Gal3S(b1-3)GalNAc
# Procedure, shortened: (§1)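 Arrays were curated from the Consortium for Functional Glycomics database, 3228 in total, and kept only where the protein sequence was available. Binding is expressed as a within-array Z-score. This score was averaged across arrays of the same protein sequence at different concentrations or buffers and across linkers, and negative values can be read as non-binding.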
# Gal3S(b1-3)GlcNAc = target: Gal3S(b1-3)GlcNAc
# Procedure, shortened: as §1
# [1] = target: Gal3S(b1-3)[Fuc(a1-4)]GlcNAc
# Procedure, shortened: as §1
# Gal3S(b1-4)Glc = target: Gal3S(b1-4)Glc
# Procedure, shortened: as §1
# Gal3S(b1-4)Glc6S = target: Gal3S(b1-4)Glc6S
# Procedure, shortened: as §1
# Gal3S(b1-4)GlcNAc = target: Gal3S(b1-4)GlcNAc
# Procedure, shortened: as §1
# Gal3S(b1-4)GlcNAc6S = target: Gal3S(b1-4)GlcNAc6S
# Procedure, shortened: as §1
# [2] = target: Gal3S(b1-4)[Fuc(a1-3)]Glc
# Procedure, shortened: as §1
# [3] = target: Gal3S(b1-4)[Fuc(a1-3)]Glc6S
# Procedure, shortened: as §1
# Gal3S4S(b1-4)GlcNAc = target: Gal3S4S(b1-4)GlcNAc
# Procedure, shortened: as §1
# Gal3S6S(b1-4)GlcNAc = target: Gal3S6S(b1-4)GlcNAc
# Procedure, shortened: as §1
# Gal3S6S(b1-4)GlcNAc6S = target: Gal3S6S(b1-4)GlcNAc6S
# Procedure, shortened: as §1
# Gal4S(b1-4)GlcNAc = target: Gal4S(b1-4)GlcNAc
# Procedure, shortened: as §1
# Gal4S6S(b1-4)GlcNAc = target: Gal4S6S(b1-4)GlcNAc
# Procedure, shortened: as §1
# Gal6S(b1-3)GlcNAc = target: Gal6S(b1-3)GlcNAc
# Procedure, shortened: as §1
# Gal6S(b1-3)GlcNAc6S = target: Gal6S(b1-3)GlcNAc6S
# Procedure, shortened: as §1
# Gal6S(b1-4)Glc = target: Gal6S(b1-4)Glc
# Procedure, shortened: as §1
# Gal6S(b1-4)Glc6S = target: Gal6S(b1-4)Glc6S
# Procedure, shortened: as §1
# Gal6S(b1-4)GlcNAc = target: Gal6S(b1-4)GlcNAc
# Procedure, shortened: as §1
# Gal6S(b1-4)GlcNAc6S = target: Gal6S(b1-4)GlcNAc6S
# Procedure, shortened: as §1
# GalNAc(a1-3)Gal = target: GalNAc(a1-3)Gal
# Procedure, shortened: as §1
# GalNAc(a1-3)GalNAc = target: GalNAc(a1-3)GalNAc
# Procedure, shortened: as §1
# [4] = target: GalNAc(a1-3)GalNAc(b1-3)Gal(a1-4)Gal(b1-4)Glc
# Procedure, shortened: as §1
# [5] = target: GalNAc(a1-3)GalNAc(b1-3)Gal(a1-4)Gal(b1-4)GlcNAc
# Procedure, shortened: as §1
# GalNAc(b1-3)Gal = target: GalNAc(b1-3)Gal
# Procedure, shortened: as §1
# [6] = target: GalNAc(b1-3)Gal(a1-4)Gal(b1-4)GlcNAc
# Procedure, shortened: as §1
# [7] = target: GalNAc(b1-3)Gal(a1-4)Gal(b1-4)GlcNAc(b1-3)Gal(b1-4)Glc
# Procedure, shortened: as §1
# [8] = target: GalNAc(b1-3)Gal(a1-6)Gal(b1-4)Glc
# Procedure, shortened: as §1
# GalNAc(b1-3)GalNAc = target: GalNAc(b1-3)GalNAc
# Procedure, shortened: as §1
# GalNAc(b1-4)Gal(b1-4)Glc = target: GalNAc(b1-4)Gal(b1-4)Glc
# Procedure, shortened: as §1
# GalNAc(b1-4)GlcNAc = target: GalNAc(b1-4)GlcNAc
# Procedure, shortened: as §1
# [9] = target: GalNAc(b1-4)GlcNAc(b1-2)Man(a1-3)[GalNAc(b1-4)GlcNAc(b1-2)Man(a1-6)]Man(b1-4)GlcNAc(b1-4)GlcNAc
# Procedure, shortened: as §1
# GalNAc(b1-6)GalNAc = target: GalNAc(b1-6)GalNAc
# Procedure, shortened: as §1
# Glc(a1-4)Glc = target: Glc(a1-4)Glc
# Procedure, shortened: as §1
# [10] = target: Glc(a1-4)Glc(a1-4)Glc(a1-4)Glc
# Procedure, shortened: as §1
# Glc(a1-6)Glc(a1-6)Glc = target: Glc(a1-6)Glc(a1-6)Glc
# Procedure, shortened: as §1
# [11] = target: Glc(a1-6)Glc(a1-6)Glc(a1-6)Glc
# Procedure, shortened: as §1
binder,measurement,setting,value
B1,glycan array binding signal (z-score),Gal3S(b1-3)GalNAc,-0.244
same,glycan array binding signal (z-score),Gal3S(b1-3)GlcNAc,-0.187
same,glycan array binding signal (z-score),[1],-0.248
same,glycan array binding signal (z-score),Gal3S(b1-4)Glc,-0.241
same,glycan array binding signal (z-score),Gal3S(b1-4)Glc6S,-0.171
same,glycan array binding signal (z-score),Gal3S(b1-4)GlcNAc,-0.155
same,glycan array binding signal (z-score),Gal3S(b1-4)GlcNAc6S,0.15
same,glycan array binding signal (z-score),[2],-0.155
same,glycan array binding signal (z-score),[3],-0.116
same,glycan array binding signal (z-score),Gal3S4S(b1-4)GlcNAc,-0.148
same,glycan array binding signal (z-score),Gal3S6S(b1-4)GlcNAc,-0.102
same,glycan array binding signal (z-score),Gal3S6S(b1-4)GlcNAc6S,-0.013
same,glycan array binding signal (z-score),Gal4S(b1-4)GlcNAc,-0.239
same,glycan array binding signal (z-score),Gal4S6S(b1-4)GlcNAc,-0.138
same,glycan array binding signal (z-score),Gal6S(b1-3)GlcNAc,-0.155
same,glycan array binding signal (z-score),Gal6S(b1-3)GlcNAc6S,-0.166
same,glycan array binding signal (z-score),Gal6S(b1-4)Glc,-0.252
same,glycan array binding signal (z-score),Gal6S(b1-4)Glc6S,-0.195
same,glycan array binding signal (z-score),Gal6S(b1-4)GlcNAc,-0.144
same,glycan array binding signal (z-score),Gal6S(b1-4)GlcNAc6S,-0.172
same,glycan array binding signal (z-score),GalNAc(a1-3)Gal,-0.219
same,glycan array binding signal (z-score),GalNAc(a1-3)GalNAc,0.087
same,glycan array binding signal (z-score),[4],-0.192
same,glycan array binding signal (z-score),[5],-0.159
same,glycan array binding signal (z-score),GalNAc(b1-3)Gal,-0.161
same,glycan array binding signal (z-score),[6],-0.234
same,glycan array binding signal (z-score),[7],-0.179
same,glycan array binding signal (z-score),[8],-0.166
same,glycan array binding signal (z-score),GalNAc(b1-3)GalNAc,1.69
same,glycan array binding signal (z-score),GalNAc(b1-4)Gal(b1-4)Glc,-0.154
same,glycan array binding signal (z-score),GalNAc(b1-4)GlcNAc,-0.208
same,glycan array binding signal (z-score),[9],-0.154
same,glycan array binding signal (z-score),GalNAc(b1-6)GalNAc,-0.089
same,glycan array binding signal (z-score),Glc(a1-4)Glc,-0.243
same,glycan array binding signal (z-score),[10],-0.168
same,glycan array binding signal (z-score),Glc(a1-6)Glc(a1-6)Glc,-0.247
same,glycan array binding signal (z-score),[11],-0.169
